The record followed here is the supplement of paper PMC10126150.

Values marked as one replicate rest on one cluster of the flow cell; about a third of the high ones do not repeat.
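Further: ATP exposure 15 min at 22 °C before imaging.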

For the data set, the system named is ATP. Put plainly: switch fluorescence ratio, 500 uM ATP over buffer (Cy3 cluster intensity, sum of 5 cycles each) (fold (ratio)); higher = stronger signal-on switching upon ATP binding; sequences stand for … in TCGTCGGCAGCGTCAGATGTGTATAAGAGACAGTTTTTTTTTTTTTTTTTTTTTTTTT…TC. As to conditions: aptamer strand: ATP DNA aptamer (quencher-CACCTGGGGGAGTATTGCGGAGGAAGG + anchor), 100 nM annealed; ATP concentration: 500 uM; one replicate. The method in brief: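 Per cluster, summed Cy3 intensity from the target cycles was divided by that from the buffer cycles to give the fluorescence ratio, then averaged per switch-domain sequence. Clusters outside 100-1000 RFU were excluded. The Cy3-labelled switching-strand clusters, on a modified Illumina MiSeq flow-cell, were annealed to 100 nM quencher-labelled ATP aptamer and imaged in selection buffer, then after 15 min with 500 uM ATP at 22 °C, for five cycles with NaOH stripping and re-annealing between them.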
For the sequence ATCATCAACT, the switch fluorescence ratio is 0.971.
Take CTCCTCTAT: the switch fluorescence ratio amounted to 1.38.
On to AGCTCTCCAA, for which the switch fluorescence ratio was 1.1.
Regarding AGCCCCGGTT, the switch fluorescence ratio is 0.995.
The same measure for ATGACCTGTT: 1.03.
As for TAAGAGATAT, the switch fluorescence ratio was 0.971.
TCTGGGCTTA: the switch fluorescence ratio came to 0.99.
As to CATAATGTTA, the switch fluorescence ratio was determined as 0.989.
With GACTAGTGCG, the switch fluorescence ratio was found to be 1.
As to GACGTAAATG, the switch fluorescence ratio turned out to be 1.02.
TGGTTAGCGC: the switch fluorescence ratio came to 0.993.
The same measure for GTAGGTGGGA: 0.976; for GTCAATAGCC: 1.08; for ACAGGTTCG: 1.03.
With TCTGGCTGAC, the switch fluorescence ratio is 1.05.
As for CATGATTTAC, the switch fluorescence ratio came out at 1.02.
As to CGGAGTCCCG, the switch fluorescence ratio amounted to 0.965.
For GACCATTGAA, the switch fluorescence ratio was found to be 1.01.
As to CATTATCGAG, the switch fluorescence ratio was 1.
For the sequence CCGTAAGGCC, the switch fluorescence ratio stood at 1.18.
Consider TTATCTCGC, for which the switch fluorescence ratio worked out at 1.02.
Take CATCGATTCG: the switch fluorescence ratio is 1.
The same measure for GAACACATAA: 1.07.
As for CAGGCCCAGC, the figure is 0.983; as for ATTACCTGCA, 1.16.
AAAGTAGAAC: the switch fluorescence ratio is 0.994.
With AAGAACACGC, the switch fluorescence ratio is 1.18.
On to TTTTTCTGTA, for which the switch fluorescence ratio was 0.965.
For the sequence GTATTGCATC, the switch fluorescence ratio stood at 1.01.
In the case of AGCTCCTCA, the switch fluorescence ratio worked out at 1.01.
Consider TTGACGGGAT, for which the switch fluorescence ratio was determined as 1.08.
In the case of TTCCCATTCT, the switch fluorescence ratio is 1.05.
As for AAGTGTGAGT, the switch fluorescence ratio is 0.99.
With CGGGCGCGAA, the switch fluorescence ratio came out at 1.01.
For ATGATTAGTG, the switch fluorescence ratio is 0.989.
With TTCTTTCGGC, the switch fluorescence ratio stood at 1.03.
Turning to CAGTAAAATA, the switch fluorescence ratio is 0.978.
For the sequence TGGACACCAA, the switch fluorescence ratio came to 1.03.
On to CCCTATTAGT, for which the switch fluorescence ratio came to 1.01.
In the case of GCACTTGGAT, the switch fluorescence ratio was found to be 0.992.
The same measure for GAAATTAGGG: 1; for GATGGCGTGA: 0.954; for CGCTAACTAT: 1.16.
Consider ATACATGTCA, for which the switch fluorescence ratio was 0.966.
Turning to GACGTGCAAA, the switch fluorescence ratio was 1.13.
Consider CTAGTCAGTG, for which the switch fluorescence ratio stood at 0.954.
For TTAAACTAAG, the switch fluorescence ratio stood at 1.01.
As for GTAGGGGT, the figure is 0.978; as for GTAACCGGAG, 1.04; as for TCTTAGATAA, 0.962.
The same measure for TACATAGCGA: 1.32; for GGGTGTGCAC: 1.03.
Regarding GATATAGATC, the switch fluorescence ratio worked out at 0.966.
Turning to GCTCAAAGGT, the switch fluorescence ratio came out at 0.99.
For the sequence GCAACGCGGC, the switch fluorescence ratio was 1.13.
As to AGTGATCTAT, the switch fluorescence ratio came out at 0.976.
As for TTGACTACTT, the figure is 1.03.
With CAAAAGTACT, the switch fluorescence ratio stood at 1.04.
Consider TCTAGGATAT, for which the switch fluorescence ratio was found to be 1.02.
Regarding GTTTGAGAGT, the switch fluorescence ratio came out at 0.989.
On to GGGTGGGGT, for which the switch fluorescence ratio stood at 0.962.
Take TATTGGGAG: the switch fluorescence ratio was determined as 1.05.
On to TGGACCGGGT, for which the switch fluorescence ratio came to 0.974.
As for GCGATGCAGC, the figure is 1.16; as for ACTGGATAGA, 1.06; as for CGTGCATAAA, 1.01.
The same measure for TCCGGATAGT: 1.1.
